Experimental data from PubChem BioAssay AID1476 (National Center for Advancing Translational Sciences (NCATS), 2009).
Where “and” joins values, the source holds several entries; their conditions need not be identical. Equal values may be shown once. In all, about 200,000 compounds went through this assay and about 4,500 (2.2%) were called active. Inconclusive means that the source gave no clear call. Such entries were picked first, then a sample of the others. Calls follow the shape of the dose curve; as a rule, active = well fitted inhibition curve with a large enough effect; inconclusive = small, poorly fitted or top-dose-only effect, or effect the other way; inactive = flat fitted curve, though single readings scatter. Where the call is inconclusive, the potency comes from a doubtful curve fit.

Target: Cruzipain (Trypanosoma cruzi) (UniProt P25779)
Chain of UniProt P25779 (P25779 whole entry, looked up): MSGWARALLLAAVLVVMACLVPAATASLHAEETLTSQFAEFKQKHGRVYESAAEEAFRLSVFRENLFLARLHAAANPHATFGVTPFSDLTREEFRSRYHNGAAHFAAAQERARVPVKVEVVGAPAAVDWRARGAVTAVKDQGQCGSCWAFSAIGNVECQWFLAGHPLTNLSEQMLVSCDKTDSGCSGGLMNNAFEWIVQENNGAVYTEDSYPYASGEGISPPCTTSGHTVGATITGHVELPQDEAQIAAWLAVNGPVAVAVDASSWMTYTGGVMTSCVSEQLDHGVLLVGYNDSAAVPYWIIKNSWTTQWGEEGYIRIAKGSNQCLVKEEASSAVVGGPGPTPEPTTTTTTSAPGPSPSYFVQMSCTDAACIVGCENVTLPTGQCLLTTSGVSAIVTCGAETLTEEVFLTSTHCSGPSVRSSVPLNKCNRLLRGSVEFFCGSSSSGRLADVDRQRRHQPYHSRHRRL
Assay: qHTS Assay for Promiscuous and Specific Inhibitors of Cruzain (without detergent); also: nearly all actives have a fitted effect of over 40% in size;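 as to max response, negative = inhibition: plate controls were enzyme without inhibitor for no effect and buffer without enzyme for full effect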
Details: purified cruzain, Z-FR-AMC fluorescence, no detergent
Method in brief: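 Detergent-free condition (0.00005% Triton X-100) in acetate buffer pH 5.5 with DTT. 1.5 nM enzyme and compound were pre-mixed 15 min, then 2 uM Z-FR-AMC substrate added; reaction progress from fluorescence change between first and third reads (60 s).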
Potency is read from the fitted curve at half-maximal effect; tags tell the direction and shape of the fitted curve.

Structure (SMILES)	Potency	max response, negative = inhibition
CCOc1ccc(N=C2NC(=O)S/C2=C\c2ccc(Cl)cc2)cc1	active: 3.98 µM	
CCc1ccc2[nH]c(=O)c(CN(Cc3ccc(F)cc3)C(c3nnnn3CCN3CCOCC3)C(C)C)cc2c1 (stereo not given)	inconclusive: 31.6 µM [activator, single point]	
Cc1cc(C)cc(-n2c(C)cc(/C=C3\C(=N)N4N=C(CC(C)C)SC4=NC3=O)c2C)c1	active: 25.1 µM	
Cc1ccc(-c2[nH]nc(N)c2N=Nc2cccc(Cl)c2C)cc1	inconclusive: 39.8 µM [inhibitor, single point]	
Cc1ccc(S(=O)(=O)c2nnn3c2nc(N2CCCCC2)c2ccccc23)cc1	inconclusive: 31.6 µM [inhibitor, single point]	
CC(C)(C)C1CCc2c(sc(NC(=O)CSc3ncn[nH]3)c2C#N)C1 (stereo not given)	inconclusive: 39.8 µM [activator, single point]	
CCCCCc1ccc(-c2ccc(C(=O)Oc3ccc(C(=O)OC)cc3)cc2)nc1		inactive: -3.87%
COc1ccccc1Nc1c2c(nc3ccc(NC(=O)/C=C/c4cc(OC)c(OC)c(OC)c4)cc13)CCCC2		inactive: -4.58%
CCn1c(COc2ccc(Cl)cc2)nnc1SCc1ccc(C#N)cc1		inactive: 1.04%
Cc1nc2sccn2c1-c1csc(NCc2ccccc2)n1	inconclusive: 39.8 µM [inhibitor, single point]	
N#Cc1nc(-c2ccc(OCc3ccccc3)cc2)oc1NCCN1CCOCC1	inconclusive: 31.6 µM [activator, single point]	
CCOC(=O)c1[nH]c(C)c(CCC(=O)Nc2ccc(C)cc2Cl)c1C	inconclusive: 3.98 µM [activator, single point]	
S=c1[nH]nc(-c2ccc3ccccc3n2)n1-c1ccc(Cl)cc1	inconclusive: 10 µM [inhibitor, single point]	
COc1ccc(C(=O)Cn2c(=O)n3nc(CCn4nc(C)cc4C)nc3c3cc(OC)c(OC)cc32)cc1		inactive: 2.25%
Cc1cc(NC(=O)CCCSc2nc(-c3ccco3)cc(C(F)(F)F)n2)no1	inconclusive: 39.8 µM [inhibitor, single point]	
CCOc1ccc(C(=O)Nc2c(C)nc(Nc3ccccc3)nc2Nc2ccccc2)cc1OCC	inconclusive: 39.8 µM [inhibitor, single point]	
CCCn1c2c(c(O)c(C(=O)Nc3ccc(OCC)cc3)c1=O)CCCC2	inconclusive: 25.1 µM [activator, partial curve]	
N=C(N)SCc1ccc(Cl)c2ccccc12 (tested in a mixture with another compound)		inactive: -3.8% and inactive: -3.69%
CN(C)/C=N/c1cnc(C(=O)c2ccc(Cl)cc2)n1C	inconclusive: 0.158 µM [inhibitor, full curve]	
CCCCN1C(=O)C(NC(C)=O)c2cc(Br)ccc21 (stereo not given)	inconclusive: 31.6 µM [activator, single point]	
CCSc1nnc(-c2cc3c(s2)-c2ccccc2CC3)o1	inconclusive: 15.8 µM [activator, partial curve]	
CC(C)(C)OC(=O)c1c(N)n(CCCN2CCCC2=O)c2nc3ccccc3nc12	inconclusive: 20 µM [activator, partial curve, poor fit]	

Structure (SMILES)	Potency	max response, negative = inhibition
Oc1ccc(O)c2c(O)cccc12	active: 12.6 µM	
Cc1cc(C(=O)Nc2cccc(C(F)(F)F)c2)c2c(C)nn(-c3cccc(F)c3)c2n1	inconclusive: 31.6 µM [inhibitor, single point]	
O=C(Cn1c(=O)n(CCCS(=O)(=O)C2CCCCC2)c(=O)c2ccccc21)Nc1ccccc1F		inactive: -4.5%
COc1cccc(CNC(=O)C2CCCN(S(=O)(=O)c3ccc4c(ccn4C)c3)C2)c1OC (stereo not given)		inactive: -1.33%
O=c1oc2ccccc2cc1-c1csc(Nc2nc3ccc(F)cc3s2)n1		inactive: 5.9%
CCOc1ccc(C(=O)NC(=S)Nc2ccc(NC(=O)CC)cc2)cc1[N+](=O)[O-]	inconclusive: 12.6 µM [activator, partial curve]	
COC(=O)c1ccc(NC(=O)CC2C(=O)N(c3cccc(C)c3)C(=O)N2Cc2ccco2)cc1 (stereo not given)		inactive: -8.3%
COc1ccccc1C(=O)Nc1ccccc1C(=O)OCc1cc(=O)n2c(C)csc2n1		inactive: 0.84%
CCOC(=O)c1c(C)[nH]c(C)c1S(=O)(=O)N(C)CC(=O)N1CCN(c2cccc(C)c2C)CC1	inconclusive: 39.8 µM [activator, single point]	
CCOc1ccc(CNC(=O)Cn2nc(N3CCN(c4ccccc4)CC3)ccc2=O)cc1	inconclusive: 39.8 µM [activator, single point]	
Oc1c(C(c2cccc(Br)c2)N2CCCC2)sc2nc(-c3ccco3)nn12 (stereo not given)	inconclusive: 39.8 µM [activator, single point]	
CCOC(=O)c1c(/N=C/N(C)C)sc(/C=N/Nc2ccccc2)c1-c1ccccc1Cl	inconclusive: 31.6 µM [inhibitor, single point]	
O=c1c2c(nc3cc(-c4ccc(Cl)cc4)[nH]n13)CCS2	inconclusive: 31.6 µM [inhibitor, single point]	
Cc1ccc(-c2c3c(=O)n(C)c(=O)n(C)c3cn2-n2cnnc2)cc1	active: 12.6 µM	
COc1ccccc1CNC(=O)CSc1nc2nc(C)c(Cc3ccccc3C)c(C)n2n1		inactive: 9.48%
O=C(NCc1ccc(Cl)cc1)C1CCN(C(=O)c2cnn(-c3ccccc3)c2-n2cccc2)CC1	inconclusive: 25.1 µM [activator, partial curve]	
Cc1ccc(NCc2nnc(SCC(=O)NCc3ccco3)n2CC2CCCO2)cc1Cl (stereo not given)	inconclusive: 31.6 µM [activator, single point]	
CCN(CC)S(=O)(=O)c1cccc(C(=O)NC(Cc2c[nH]c3ccccc23)c2nnc3n2CCCCC3)c1 (stereo not given)	inconclusive: 31.6 µM [activator, single point]	
COc1ccc2cc1Oc1ccc(cc1)C[C@H]1c3c(cc4c(c3Oc3cc5c(cc3OC)CCN(C)[C@@H]5C2)OCO4)CCN1C	inconclusive: 15.8 µM [inhibitor, partial curve]	
CCOC(=O)C1=C(C)NC(=O)NC1/C=C/c1ccccc1 (stereo not given)	inconclusive: 39.8 µM [inhibitor, single point]	
Cc1ccc(S(=O)(=O)NCC(=O)OCN2C(=O)c3ccccc3C2=O)cc1	active: 25.1 µM	
CC(=O)c1c(C)[nH]c(C(=O)CSc2nnc(-c3ccco3)n2Cc2ccccc2)c1C	inconclusive: 39.8 µM [activator, single point]	

Structure (SMILES)	Potency	max response, negative = inhibition
Cc1ccc2cc(CN(CCN3CCCC3)C(=O)Nc3ccc(F)cc3)c(=O)[nH]c2c1C	inconclusive: 31.6 µM [inhibitor, single point]	
COc1cc(C(O)C(=O)O)ccc1O (stereo not given)	inconclusive: 39.8 µM [inhibitor, single point]	
COc1cccc(-c2nn(-c3ccccc3)cc2C(=O)OCC(=O)Nc2ncc(Cl)cc2Cl)c1	inconclusive: 25.1 µM [inhibitor, single point]	
CC(C)c1ccc(NC(=O)C2CCCN(S(=O)(=O)c3ccc4[nH]c(=O)oc4c3)C2)cc1 (stereo not given)		inactive: -6.86%
O=C(CCc1ccccc1)NC(NC(=S)Nc1ccc(Br)cc1)C(Cl)(Cl)Cl (stereo not given)	active: 10 µM	
Cn1cnnc1SCC(=O)n1c2ccccc2c2ccccc21	inconclusive: 39.8 µM [activator, single point]	
Cc1cc(C)cc(OCC(=O)Nc2nonc2NC(=O)COc2cc(C)cc(C)c2)c1	inconclusive: 3.98 µM [inhibitor, full curve]	
N[C@@H](CNO)C(=O)O		inactive: -6.82%
O=C(O)c1ccccc1Nc1cccc(OCc2ccc3ccccc3n2)c1	inconclusive: 20 µM [inhibitor, full curve, poor fit]	
CN(c1ccccc1)S(=O)(=O)c1ccc(Cl)c(C(=O)Nc2ccc(-c3nc4ccccc4[nH]3)cc2)c1	active: 12.6 µM	
O=C1c2ccccc2C(=O)N1CSc1nnc2c3ccccc3n(CCc3ccccc3)c2n1	inconclusive: 39.8 µM [inhibitor, single point]	
N#Cc1c(N)c(C(=O)c2ccc(Br)cc2)n2c1CCC2	inconclusive: 31.6 µM [inhibitor, single point]	
CC(C)c1ccc(C(=O)NCc2ccc(Cl)cc2)cc1	inconclusive: 31.6 µM [inhibitor, single point]	
Cc1cc(C)nc(Nc2ccc(N3CCOCC3)cc2)n1	inconclusive: 1 µM [inhibitor, full curve, poor fit]	
Cc1ccc(CCN2C(=O)CCC2(C)C(=O)NC2CCCC2)cc1 (stereo not given)		inactive: -6.17%
COC(=O)c1ccc(-c2nc3cc(N)ccc3o2)cc1		inactive: 6.03%
Cc1ccc2oc(C(=O)NCC(c3ccc(Cl)cc3)N3CCOCC3)c(C)c2c1 (stereo not given)	inconclusive: 31.6 µM [activator, single point]	
COC(=O)C1=C(C)OC(N)=C(C#N)C1c1ccc(OC)c(OC)c1OC (stereo not given)		inactive: -1.23%
COc1ccc(N2Cc3ccccc3C2)cc1Cl	inconclusive: 31.6 µM [inhibitor, single point]	
Cc1nc(-c2ccc(F)cc2)sc1CCNC(=O)c1ccccc1C(F)(F)F		inactive: 9.39%
COCCCNC(=O)CCCn1c(=O)c2ccccc2n(CC(=O)Nc2c(C)cc(C)cc2C)c1=O	inconclusive: 39.8 µM [activator, single point]	
